Laboratory results as given in PubChem BioAssay AID2451 (National Center for Advancing Translational Sciences (NCATS), 2010).
Screen size: about 290,000 compounds; about 2,100 (0.72%) were called active. Inconclusive results, whose numbers are uncertain, are shown with a selection of clear calls. The call rests on the fitted dose curve; in most records, active means well fitted inhibition curve with a large enough effect; inconclusive means small, poorly fitted or top-dose-only effect, or effect the other way; inactive means flat fitted curve, though single readings scatter. Potencies of inconclusive entries are doubtful fits and often do not repeat.
Further: nearly all actives have a fitted effect of over 55% in size.
On the % scale 0 is the no-effect control and ±100 the full control effect; potency means the concentration at half of the fitted maximal effect; tags describe the fitted curve by direction and shape.

Each compound was assayed against Fructose-bisphosphate aldolase (Giardia intestinalis (strain ATCC 50803 / WB clone C6)) (UniProt A8B2U2) (assay: qHTS Assay for Inhibitors of Fructose-1,6-bisphosphate Aldolase from Giardia Lamblia). Settings: purified Giardia FBPA; activity, negative = inhibition: at 59.6 µM (top of the series) unless noted.
Chain of UniProt A8B2U2 (A8B2U2 whole entry, looked up): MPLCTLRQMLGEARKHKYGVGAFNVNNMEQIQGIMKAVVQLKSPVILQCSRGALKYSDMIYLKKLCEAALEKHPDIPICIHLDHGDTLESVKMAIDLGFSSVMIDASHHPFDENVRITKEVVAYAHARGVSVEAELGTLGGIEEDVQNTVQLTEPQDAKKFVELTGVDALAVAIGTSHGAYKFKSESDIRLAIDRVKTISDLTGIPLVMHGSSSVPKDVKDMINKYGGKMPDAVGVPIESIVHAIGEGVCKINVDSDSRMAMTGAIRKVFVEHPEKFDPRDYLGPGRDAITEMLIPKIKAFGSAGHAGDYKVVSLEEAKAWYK
Procedure, shortened: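 Giardia FBPA (40 nM reagent) was preincubated 10 min at RT with compound (up to 57.5 uM final), then substrate plus GAPDH/TPI/NAD/arsenate coupling system with diaphorase/resazurin was added; resorufin fluorescence (525/598 nm) was read after 20 min.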
In the case of `COc1cccc(/C=C(/C#N)c2ccc(Cl)cc2)c1OCc1cccc(C(=O)O)c1`, the Potency is reported as inconclusive: 19.9 µM [activator, partial curve].
`COc1ccc(CNc2cc(NCCCO)c([N+](=O)[O-])c3nonc23)cc1` was tested, and the Potency was inconclusive: 7.06 µM [inhibitor, full curve].
With `CCc1ccc2[nH]c(=O)c(CN(CCN(CC)CC)C(=O)Nc3ccccc3OC)cc2c1` the “activity, negative = inhibition” value was inactive: -1.85%.
In the case of `Cc1ccc(NC(=O)C(=O)NCc2ccc(/C=N/NC(=O)c3c(C)nc4ccccn34)o2)cc1`, the “activity, negative = inhibition” value is reported as inactive: -7.44%.
For `Cc1c(-c2cccc(Cl)c2)nc2ccccc2c1C(=O)OC/C(O)=C(\C#N)c1nc2ccccc2[nH]1`, the “activity, negative = inhibition” value was inactive: -16.6%.
`CCN1CCN(CC(=O)Nc2nc3ccc(OC)cc3s2)CC1` was tested, and the Potency was inconclusive: 19.9 µM [inhibitor, partial curve].
`COc1ccc(OC)c(S(=O)(=O)Nc2cc3c(cc2N2CCCC2)n(C)c(=O)c(=O)n3C)c1` was tested, and the Potency was inconclusive: 25.1 µM [inhibitor, partial curve].
For `COc1cc(/C=C/c2sc3ccccc3[n+]2CCCS(=O)(=O)[O-])ccc1O`, the Potency was inconclusive: 14.1 µM [inhibitor, partial curve].
In the case of `Cc1ccc(NC(=O)Nc2cccc(Cl)c2)c(C(=O)O)c1`, the Potency is reported as inconclusive: 19.9 µM [inhibitor, single point].
For `CC1(C)CC(=O)C2=C(C1)OC(N)=C(C#N)C2c1cc2c(cc1[N+](=O)[O-])OCO2` (stereo not drawn), the Potency was inconclusive: 9.98 µM [inhibitor, partial curve].
`CN(C(=S)Nc1ccc(SC(F)F)cc1)c1ccc(O)cc1` was tested, and the Potency was inconclusive: 2.51 µM [inhibitor, partial curve].
`COC(=O)CC1=C(C(=O)OC)[C@@H](c2ccccc2[N+](=O)[O-])C(C#N)=C(N)O1` was tested, and the Potency was inconclusive: 14.1 µM [inhibitor, partial curve].
`O=c1c2[nH]cnc2n(-c2ccccc2)c(=O)n1Cc1ccccc1` was tested, and the Potency was inconclusive: 14.1 µM [inhibitor, partial curve].
For `O=C(Nc1nc(NC(=O)c2ccco2)n(-c2ccccc2)n1)c1ccccc1`, the Potency was inconclusive: 31.5 µM [inhibitor, single point].
With `Oc1c(/C=N/c2ncn[nH]2)ccc2ccccc12` the Potency was active: 8.89 µM.
For `C=Cc1ccc(N=Cc2c(O)ccc3ccccc23)cc1`, the Potency was active: 14.1 µM.
With `O=C(Nc1cccc(O)c1)c1ccc(NC(=O)C2CCCO2)cc1` (stereo not drawn) the “activity, negative = inhibition” value was inactive: 3.08%.
With `COC(=O)CCC(=O)OC1(C)C(=O)C2=CN(c3ccccc3)C(c3ccc(OC)cc3)=CC2=C(Br)C1=O` (stereo not drawn) the Potency was inconclusive: 1.12 µM [inhibitor, single point].
`O=C(Nc1ccc2nc(-c3cccs3)c(-c3cccs3)nc2c1)N1CCOCC1` was tested, and the Potency was inconclusive: 2.81 µM [inhibitor, partial curve].
With `Nc1cccc2[nH]c(C(F)(F)F)nc12` the Potency was active: 19.9 µM.
In the case of `CN(N)N=Nc1nc2c([nH]1)c(=O)n(C)c(=O)n2C`, the Potency is reported as inconclusive: 17.7 µM [inhibitor, partial curve].
In the case of `COc1ccc2[nH]c(C(=O)N/N=C/c3ccccc3OC)cc2c1`, the “activity, negative = inhibition” value is reported as inactive: 5.98%.
For `CC[C@H](C)[C@H](NC(=O)[C@@H]1CCCN1C(=O)[C@H](C)NC(=O)[C@H](CC(N)=O)NC(=O)[C@@H]1CCCN1C(=O)[C@@H]1CCCN1C(=O)[C@H](CCCN=C(N)N)NC(=O)[C@H](Cc1ccc(O)cc1)NC(=O)[C@H](C)NC(=O)[C@@H]1CCCN1C(=O)[C@@H]1CCCN1C(=O)[C@@H](N)[C@@H](C)O)C(=O)N[C@@H](CC(C)C)C(=O)O`, the “activity, negative = inhibition” value was inactive: 8.48%.
`OC(CCc1cccc(Cl)c1)c1cccs1` (stereo not drawn) was tested, and the “activity, negative = inhibition” value was inactive: 5.69%.
With `Nc1ncccc1OCc1ccc(Br)cc1` the Potency was inconclusive: 19.9 µM [inhibitor, single point].
With `CC(=O)C(Cc1ccccc1)NC(=O)CCl` (stereo not drawn) the “activity, negative = inhibition” value was inactive: -5.93%.
With `COc1cc(NC(=O)c2ccc(COc3ccccc3Br)o2)cc(OC)c1OC` the “activity, negative = inhibition” value was inactive: -5.31%.
`C=CCn1c(-c2ccc(OC)c(OC)c2)cs/c1=N\c1ccccn1` was tested, and the Potency was inconclusive: 19.9 µM [inhibitor, partial curve].
For `S=C(Nc1ccc2cn[nH]c2c1)Nc1ccc(Cl)cc1Cl`, the Potency was inconclusive: 12.6 µM [inhibitor, partial curve].
For `CC(C)OC(=O)CC(=O)c1sc2nc3c(cc2c1N)CN(C)CC3`, the Potency was inconclusive: 7.06 µM [inhibitor, partial curve].
In the case of `O=C(CNC(=O)c1ccc2ccccc2c1)OCC(=O)N1CCN(S(=O)(=O)c2ccc3ccccc3c2)CC1`, the “activity, negative = inhibition” value is reported as inactive: 28.2%.
In the case of `CNC(=O)CC1C(=O)N(c2ccc(F)cc2)C(=S)N1NC(=O)c1ccc(Cl)cc1` (stereo not drawn), the Potency is reported as inconclusive: 10 µM [inhibitor, partial curve].
For `COc1ccccc1NC(=O)c1cc2cc(Br)ccc2cc1O`, the Potency was inconclusive: 14.1 µM [inhibitor, partial curve].
`O=C(Nc1nnc(-c2ccncc2)o1)c1ccccc1F` was tested, and the Potency was inconclusive: 19.9 µM [inhibitor, single point].
`CC(C)C[C@H](NC(=O)c1[nH]cnc1C(=O)N[C@H](C)c1ccccc1)C(=O)OC(C)(C)C` was tested, and the Potency was inconclusive: 25.1 µM [inhibitor, single point].
For `Cc1[nH]c2ccccc2c1N=Nc1cccc(C(=O)O)c1`, the “activity, negative = inhibition” value was inactive: 13.2%.
In the case of `O=C(N/N=C/c1cccnc1)c1cc(O)c(O)c(O)c1`, the Potency is reported as active: 10 µM.
For `COc1ccccc1OCCCn1cc(C=O)c2ccccc21`, the Potency was inconclusive: 17.7 µM [inhibitor, partial curve].
With `Cc1cccc(-n2c(SCC(N)=O)nc3c(c2=O)C2(CCCC2)Cc2ccccc2-3)c1` the “activity, negative = inhibition” value was inactive: 12.8%.
In the case of `CC1Cc2ccccc2N1C(=O)COC(=O)c1c2c(nc3ccccc13)CCCCC2` (stereo not drawn), the “activity, negative = inhibition” value is reported as inactive: -1.6%.
With `C(=C\c1ccccc1)/CN1CCN(Cc2ccc3c(c2)OCO3)CC1` the Potency was active: 7.94 µM.
For `CCc1ccc(Nc2n[n+](-c3ccccc3)c(-c3c(Cl)cccc3Cl)s2)cc1`, the Potency was inconclusive: 14.1 µM [inhibitor, partial curve].
In the case of `CCC(C)n1c(O)c(/C=N/Nc2nc3c(c(=O)n(C)c(=O)n3C)n2C)c(=O)[nH]c1=S` (stereo not drawn), the Potency is reported as inconclusive: 22.3 µM [inhibitor, partial curve].
